Measurements from paper PMC4336329 (PLoS ONE, 2015).
The campaign covered roughly 310,000 compounds. About 2,200 (0.71%) showed an effect of 50% or more. Effects have a minus sign here. The list shows a part of the results.

target: human ether-à-go-go-related gene (hERG) potassium channel (human, UniProt Q12809); experiment: primary screen, population patch clamp on CHO cells stably expressing hERG
Sequence (Q12809 whole entry, looked up): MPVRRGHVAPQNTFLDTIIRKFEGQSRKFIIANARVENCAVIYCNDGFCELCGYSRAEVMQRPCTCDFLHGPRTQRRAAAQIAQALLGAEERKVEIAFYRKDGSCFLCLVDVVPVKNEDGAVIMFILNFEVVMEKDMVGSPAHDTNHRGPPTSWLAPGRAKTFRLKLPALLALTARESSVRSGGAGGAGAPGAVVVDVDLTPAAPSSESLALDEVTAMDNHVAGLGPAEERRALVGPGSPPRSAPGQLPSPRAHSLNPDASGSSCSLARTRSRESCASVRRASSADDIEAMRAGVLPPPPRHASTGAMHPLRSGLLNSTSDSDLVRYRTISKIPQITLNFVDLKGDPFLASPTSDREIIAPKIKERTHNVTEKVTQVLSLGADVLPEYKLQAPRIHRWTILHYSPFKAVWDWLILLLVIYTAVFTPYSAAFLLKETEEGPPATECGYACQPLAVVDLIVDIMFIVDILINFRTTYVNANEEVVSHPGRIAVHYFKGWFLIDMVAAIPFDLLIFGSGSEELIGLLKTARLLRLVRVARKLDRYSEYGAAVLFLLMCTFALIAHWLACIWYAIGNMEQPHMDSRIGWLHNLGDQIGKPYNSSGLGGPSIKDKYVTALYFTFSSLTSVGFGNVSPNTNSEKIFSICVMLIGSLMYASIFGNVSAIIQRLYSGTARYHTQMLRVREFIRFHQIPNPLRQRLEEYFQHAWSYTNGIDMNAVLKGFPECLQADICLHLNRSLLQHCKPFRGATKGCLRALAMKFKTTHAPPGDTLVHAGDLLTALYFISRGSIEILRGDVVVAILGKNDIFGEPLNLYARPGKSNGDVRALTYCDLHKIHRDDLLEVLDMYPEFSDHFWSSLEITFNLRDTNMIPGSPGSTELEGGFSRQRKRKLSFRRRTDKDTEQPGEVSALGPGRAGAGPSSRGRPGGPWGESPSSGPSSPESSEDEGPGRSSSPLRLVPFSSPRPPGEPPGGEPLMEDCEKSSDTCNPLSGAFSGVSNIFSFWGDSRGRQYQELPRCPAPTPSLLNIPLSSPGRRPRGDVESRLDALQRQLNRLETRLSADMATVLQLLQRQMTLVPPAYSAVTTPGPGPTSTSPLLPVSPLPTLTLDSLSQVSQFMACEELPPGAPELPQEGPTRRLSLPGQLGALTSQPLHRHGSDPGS

SMILES	hERG current change (%, negative = inhibition) at 1uM
CN1C(=O)C2(OCC(CO)([N+](=O)[O-])CO2)c2ccccc21 (stereo not drawn)	11.1%
CC1(C)C(C(=O)N2CCN(C(=O)c3ccccc3)CC2)C1(C)C	8.64%
CCSc1nnc(NC(=O)c2cccnc2Cl)s1	7.17%
C=CCn1c(CNS(=O)(=O)c2ccc(Cl)cc2)n[nH]c1=S	6.06%
C=CCOC(=O)C(C#N)c1nc2ccccc2nc1N1CCN(Cc2ccccc2)CC1 (stereo not drawn)	-21.7%
O=C(CN1CCCCCC1)Nc1ccc(Br)cc1Br	9.18%
COc1ccc(NC(=O)c2cc(-c3ccccc3O)n[nH]2)cc1Cl	18.1%
Cc1ccc(C(=O)NCCSc2c(C)[nH]c3ccccc23)cc1[N+](=O)[O-]	10.5%
O=C(O)/C=C/C(=O)N1CCN(c2ccccc2F)CC1	8.26%
COc1cc(S(=O)(=O)NCC(c2ccco2)N2CCCCC2)ccc1NC(C)=O.Cl (stereo not drawn)	5.43%
C=CCn1c(Sc2nnc(C)s2)nc2c1c(=O)[nH]c(=O)n2C	11%
Cn1c(-n2c(-c3ccco3)nc3ccccc3c2=O)nc2ccccc21	16.4%
CCC(=O)Nc1ccc(N2CCN(C(=O)c3ccccc3C)CC2)cc1	4.68%
O=C(O)C1CCc2sc3[nH]c(=S)n(-c4ccccc4)c(=O)c3c21 (stereo not drawn)	13.7%
O=C(NCc1ccccc1CN1CCCC1)c1cc2cc(Cl)ccc2o1	-7.54%
COc1ccc(-n2c3c(cc(C(=O)Nc4ccc(C)cc4)c2=O)C(=O)CCC3)cc1	-2.91%
O=c1c2ccccc2c(C=NCCc2ccccc2)c(O)n1Cc1ccccc1	8.59%
Cc1ccc(CNC(=O)C2COc3ccccc3O2)cc1 (stereo not drawn)	8.38%
COc1ccc(C(=O)NC2CCN(S(=O)(=O)c3ccc(F)cc3)CC2)cc1	11.9%

SMILES	hERG current change (%, negative = inhibition) at 1uM
Cc1cccc(C(=O)N2CCCC(N3CCN(c4ccccc4F)CC3)C2)n1 (stereo not drawn)	8.48%
CCOC(=O)C(C)Sc1nnc2n1C(C)(C)Cc1ccccc1-2 (stereo not drawn)	1.07%
CCN1CCN(Cc2nc3c(c(=O)n(C)c(=O)n3C)n2CC(=O)c2ccccc2)CC1	15.7%
CN1CCC(=NNC(=O)C(=O)NCc2ccccc2)CC1	4.35%
CCN(CC)S(=O)(=O)c1ccc(C(=O)N2CCc3ccccc32)cc1	7.93%
O=C(Nc1cnn(C23CC4CC(CC(C4)C2)C3)c1)c1cc(-c2ccccc2)on1	5.24%
COc1cccc(N/C=C/C(=O)c2ccc(Cl)cc2)c1	9.03%
COc1ccc(CNC(=O)CSc2ncnc3ccccc23)cc1OC	5.26%
Cc1cccnc1NC(=O)c1c(O)c2cccc3c2n(c1=O)CCC3	12.4%
COc1ccc(OC)c(C2C(C(=O)c3ccc(C)o3)=C(O)C(=O)N2c2cc(C)on2)c1 (stereo not drawn)	10.8%
COc1ccc(-c2cc(C(F)(F)F)n3ncc(C(=O)N(C)Cc4ccccc4)c3n2)cc1	10.1%
Clc1ccc(Oc2nc(N3CCOCC3)nc(N3CCOCC3)n2)cc1	-0.674%
Cn1c(=O)oc2cc(S(=O)(=O)Nc3ccc4c(c3)OCCO4)ccc21	11.1%
CC(=O)N1c2ccccc2Oc2cc3ccccc3cc21	8.67%
CC(NC(=O)CCC(=O)N1CCN(S(=O)(=O)c2ccc(Cl)cc2)CC1)c1ccccc1 (stereo not drawn)	-4.09%
COc1cccc(-c2cc(C(=O)NCC3CCCO3)c3ccccc3n2)c1 (stereo not drawn)	9.71%
O=C(NCc1cccnc1)c1ccc(=O)oc1	-1.38%
COc1ccc(NC(=O)CSc2nc(=O)n(CCN(C)C)c3c2CCCC3)cc1OC	11.7%
CCOC(=O)Cc1csc(SCC(=O)Nc2cccc(C#N)c2)n1	12.2%

SMILES	hERG current change (%, negative = inhibition) at 1uM
Cc1ccc(NC(=O)OCc2cncs2)cc1	9.49%
CSc1cccc(CN2CCC(CO)(Cc3ccccc3)CC2)c1	-1.47%
O=C(CCc1nnc(Cc2ccc(-c3ccccc3)cc2)o1)NCC1CC1	6.1%
Cc1nnc(SCC(N)=O)n1CCc1ccccc1	10.9%
CC1Cc2ccccc2N1S(=O)(=O)c1cccc(C(=O)N2CCN(c3ncccn3)CC2)c1 (stereo not drawn)	11%
Cn1ncc(Br)c1C(=O)NC(=S)N1CCN(c2ccccn2)CC1	3.64%
O=C(NC1CCCCCCC1)c1ccc2c(c1)OCO2	11.9%
CCC1CCCCN1CCNC(=O)C1CCCN(S(=O)(=O)c2cccc3nsnc23)C1 (stereo not drawn)	0.484%
O=[N+]([O-])c1cccc(-c2ccc(C(=S)N3CCN(c4ccccc4)CC3)o2)c1	15%
O=C(NN1C(=O)/C(=C/C=C/c2ccccc2)SC1=S)c1ccncc1	11.2%
COC(=O)C1=C(C)Nc2ncnn2C1c1ccco1 (stereo not drawn)	9.82%
O=C(NCC(c1ccc(F)cc1)N1CCOCC1)c1cccnc1Sc1ccccc1 (stereo not drawn)	12.9%
O=C(Nc1ccc2c(c1)OCCO2)c1ccc(Cl)c([N+](=O)[O-])c1	8.05%
CN(CC(=O)Nc1ccccc1Cl)C(=O)COC(=O)c1ccc([N+](=O)[O-])cc1Cl	10.2%
CC(=O)N1c2c(cc(Br)cc2S(=O)(=O)N2CCN(c3ccccn3)CC2)CC1C (stereo not drawn)	10.2%
CCCCN=C1NN=C(c2cc3ccccc3o2)CS1	-4.55%
C/C(=N\NC(=S)NC1CCCCC1)c1ccc(C#N)cc1	12.2%
CN(Cc1nc2ccccc2c(=O)[nH]1)Cc1nc2ccsc2c(=O)[nH]1	6.69%
Cc1ccc(S(=O)(=O)N2CCCCC2)cc1NC(=O)c1ccccn1	9.89%
